Measured values taken from PubChem BioAssay AID1347073 (National Center for Advancing Translational Sciences (NCATS), 2019).
Hit rate of the full screen: of about 45,000 compounds, about 200 (0.44%) were called active. Another 7% or so got no clear call; they are omitted. The call rests on the fitted dose curve; in most records, active means well fitted activation curve with a large enough effect; inconclusive means small, poorly fitted or top-dose-only effect; inactive means no such curve, though single readings can be large or run the other way. This is one part of the list.
Potency means the concentration at half of the fitted maximal effect.

Test: qHTS of TDP-43 Inhibitors: NCGC Sytravon Library Screen; further: nearly all actives have a fitted effect of over 55% in size; on growth rescue (activation): 0% is about no effect
Conditions: yeast TDP-43 toxicity rescue, BacTiter-Glo growth, 24 h; series mostly up to 46.1 µM; growth rescue (activation): at the top concentration
How it was run: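 TDP-43-expressing yeast, pregrown in raffinose, seeded at OD600 0.02 in galactose medium with compound for 24 hr at 30 deg C. Growth read by BacTiter-Glo luminescence, so rescue of toxicity appears as activation.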
In the case of `COc1ccc(S(=O)(=O)N2CCOCC2)cc1NC(=O)CSc1ccccc1`, the “growth rescue (activation)” value is reported as inactive: 15.9%.
For `COc1ccc(N2CCN(CC(=O)NC(=O)NCc3ccco3)CC2)cc1`, the “growth rescue (activation)” value was inactive: -7.04%.
With `O=c1oc2ccccc2c2[nH]ccc12` the “growth rescue (activation)” value was inactive: -18%.
For `Cc1cccc(-c2nc(Nc3ccc(O)cc3)c3ccccc3n2)c1`, the “growth rescue (activation)” value was inactive: 3.03%.
In the case of `CCN(CC)S(=O)(=O)c1cccc(-c2n[nH]c(=S)n2/N=C/c2ccc(OC)cc2)c1`, the “growth rescue (activation)” value is reported as inactive: 28.7%.
In the case of `Cc1cc(C(=O)Nc2ccccc2C(=O)O)c(C)o1`, the “growth rescue (activation)” value is reported as inactive: -32.2%.
For `Cc1nc2nc(SCC(=O)NCCCN3CCCCC3)nn2c(C)c1Cc1ccccc1`, the “growth rescue (activation)” value was inactive: -3.91%.
For `CCc1ccc(OCCNC(=O)c2ccccc2SCc2ccccc2)cc1`, the “growth rescue (activation)” value was inactive: 24.5%.
For `O=C(O)c1cccc(S(=O)(=O)Nc2cccc(S(=O)(=O)N3CCCCCC3)c2)c1`, the “growth rescue (activation)” value was inactive: -14.9%.
With `COc1ccc(OC)c(NC(=S)NCc2ccccc2OC)c1` the “growth rescue (activation)” value was inactive: -3.37%.
For `Cc1ccc(O)c(-c2cc(C(=O)Nc3cccnc3)[nH]n2)c1`, the “growth rescue (activation)” value was inactive: 9.89%.
In the case of `Cc1cccc(NC(=O)CN2C(=O)N/C(=C\c3cccn3-c3cccc(C(=O)O)c3)C2=O)c1`, the “growth rescue (activation)” value is reported as inactive: 6.5%.
For `CC(NC(=O)CCc1nnc(C2(c3ccc(Cl)cc3)CCC2)o1)C1CC1` (centres undefined), the “growth rescue (activation)” value was inactive: -1.84%.
For `CCOC(=O)C1(CCOc2ccccc2)CCN(Cc2cccc(OC)c2OC)CC1`, the “growth rescue (activation)” value was inactive: -0.881%.
With `CCOC(=O)c1cc(-c2nnc(SCC(=O)Nc3ccc(F)cc3)o2)c(C)nc1C` the “growth rescue (activation)” value was inactive: 18.6%.
In the case of `Cc1ccc(C(=O)NCCNC(=O)Cc2ccccc2)cn1`, the “growth rescue (activation)” value is reported as inactive: 6.2%.
For `FC(F)(F)c1ccccc1-n1c(-c2ccco2)n[nH]c1=S`, the “growth rescue (activation)” value was inactive: 12.7%.
With `CCNC(=O)CC1C(=O)N(CC)C(=S)N1NC(=O)c1ccccc1` (centres undefined) the “growth rescue (activation)” value was inactive: -7.93%.
With `CCN(CC)CCNC(=O)c1cc2c(=O)n(C)c3ccccc3c2s1` the “growth rescue (activation)” value was inactive: -22%.
With `COC(=O)c1nnn(-c2nc(N(C)C)nc(N(C)C)n2)c1C` the “growth rescue (activation)” value was inactive: 2.77%.
With `Cc1cc(C)n2nc(SCC(=O)N3CCc4ccccc43)nc2n1` the “growth rescue (activation)” value was inactive: 4.69%.
With `c1ccc(-c2ccc(-c3[nH]ncc3CN3CCC(N4CCSCC4)CC3)cc2)cc1` the “growth rescue (activation)” value was inactive: -3.73%.
For `Cc1cc(C)n(CCC(=O)N/N=C/c2ccc(Cl)c([N+](=O)[O-])c2)n1`, the “growth rescue (activation)” value was inactive: 0.721%.
With `Cc1cc(Nc2cccc(Cl)c2)nc(N2CCOCC2)n1` the “growth rescue (activation)” value was inactive: 2.31%.
With `COc1ccc(C(=O)N2CCN(C(=O)CC(C)C)CC2)cc1OC` the “growth rescue (activation)” value was inactive: -3.16%.
In the case of `CCNc1c(NS(=O)(=O)c2ccc(Cl)s2)c(=O)oc2ccccc12`, the “growth rescue (activation)” value is reported as inactive: 19%.
For `CC1CN(C(=O)C2CC(=O)N(c3ccc(Cl)cc3)C2)CC(C)O1` (centres undefined), the “growth rescue (activation)” value was inactive: 6.74%.
For `Cc1ccc2c(CN3CCCCC3C)cc(=O)oc2c1C` (centres undefined), the “growth rescue (activation)” value was inactive: 1.84%.
With `O=C1CCCC2=C1C(c1cccc(O)c1)C1=C(N2)c2ccccc2C1=O` (centres undefined) the “growth rescue (activation)” value was inactive: 0.112%.
For `COCCn1c(SCC(=O)N2CCOCC2)nnc1-c1ccco1`, the “growth rescue (activation)” value was inactive: 13.2%.
With `COc1ccc(CNC(=O)Cn2cccc2C(=O)c2ccccc2C)cc1` the “growth rescue (activation)” value was inactive: 23%.
For `CCC(=O)NC(Nc1nc(C)cs1)(C(=O)OC)C(F)(F)F` (centres undefined), the “growth rescue (activation)” value was inactive: 15.2%.
With `O=C(NC1CCCC1)c1cc2nc(-c3ccco3)cc(C(F)(F)F)n2n1` the “growth rescue (activation)” value was inactive: 21%.
With `Cc1cccc(C)c1N(CC(=O)NCc1ccccc1)C(=O)c1csnn1` the “growth rescue (activation)” value was inactive: -0.232%.
For `Cc1cc(=O)oc2cc(OC(C(=O)O)c3ccccc3)ccc12` (centres undefined), the “growth rescue (activation)” value was inactive: -25.8%.
For `COCCNc1nc(NCCOC)c2sc(-c3ccccc3)cc2n1`, the “growth rescue (activation)” value was inactive: -0.252%.
In the case of `O=C(NNc1c2ccccc2nc2ccccc12)c1cc2ccccc2cc1O`, the “growth rescue (activation)” value is reported as inactive: -36.8%.
For `O=Cc1cc(Cl)ccc1OCCN1CCC(Cc2ccccc2)CC1`, the “growth rescue (activation)” value was inactive: -0.576%.
With `CC(C1CC2CCC1C2)N1CC(O)=C(c2nc3ccccc3[nH]2)C1=N` (centres undefined) the “growth rescue (activation)” value was inactive: 28.7%.
For `COc1ccccc1NS(=O)(=O)c1cccc(C(=O)N/N=C/c2ccc3c(c2)OCCO3)c1`, the “growth rescue (activation)” value was inactive: 4.07%.
For `COc1ccc(NC(=O)N2CCCC(C(=O)Nc3ccccc3OC)C2)cc1` (centres undefined), the “growth rescue (activation)” value was inactive: 18.1%.
In the case of `COc1cccc(OC)c1CN1CCCC(C(=O)c2ccccc2SC)C1` (centres undefined), the “growth rescue (activation)” value is reported as inactive: 5.77%.
In the case of `COC(=O)Nc1nnc(-c2ccc(OC)cc2)s1`, the “growth rescue (activation)” value is reported as inactive: 2.29%.
With `N#CCSc1ccccc1NC(=O)CN1C(=O)C(=O)N(Cc2ccccc2)C1=O` the “growth rescue (activation)” value was inactive: 1.39%.
In the case of `Cc1cc(C(=O)N/N=C/c2cc(Cl)cc([N+](=O)[O-])c2O)n[nH]1`, the “growth rescue (activation)” value is reported as inactive: 23.5%.
With `CCN(CC)c1ccc(NC(=O)c2ccc(S(=O)(=O)N3CCOCC3)cc2)cc1` the “growth rescue (activation)” value was inactive: 17.5%.
With `Cc1ccc(S(=O)(=O)N(C)C)cc1NC(=S)NCCc1ccccn1` the “growth rescue (activation)” value was inactive: -6.71%.
In the case of `O=C(/C=C/c1c(F)cccc1Cl)Nc1ccncc1`, the “growth rescue (activation)” value is reported as inactive: 14.3%.
In the case of `CC1(C(=O)NS(=O)(=O)c2ccccc2Cl)CCN1C(=O)Cc1cc(F)ccc1F` (centres undefined), the “growth rescue (activation)” value is reported as inactive: 12.6%.
For `CCN(C(=O)CN1CCCc2cc(C)ccc21)c1c(N)n(Cc2ccccc2)c(=O)[nH]c1=O`, the “growth rescue (activation)” value was inactive: -7.46%.
With `COc1ccc2nc(NC(=O)c3ccc(NC(=O)C4CCCO4)cc3)sc2c1` (centres undefined) the “growth rescue (activation)” value was inactive: 8.44%.
In the case of `COc1ccc(NS(=O)(=O)c2ccc3c(c2)OCCO3)cc1OC`, the “growth rescue (activation)” value is reported as inactive: -0.084%.
For `C/C(=N\NC(=O)c1cc(-c2ccc(Cl)s2)[nH]n1)c1ccncc1`, the “growth rescue (activation)” value was inactive: 0.118%.
With `CCC(C)C(=O)Nc1nc2ccc(OC)cc2s1` (centres undefined) the Potency was active: 11.2 µM.
With `COC(=O)c1ccc(C2C(C#N)=C(N)Oc3cc(N)ccc32)cc1` (centres undefined) the “growth rescue (activation)” value was inactive: 13.2%.
In the case of `Cc1ccc(-c2cc(C(=O)Nc3cc(C)ccc3O)no2)cc1`, the “growth rescue (activation)” value is reported as inactive: -4.14%.
For `CCc1nc(NCCN2CCOCC2)c2oc3ccccc3c2n1`, the “growth rescue (activation)” value was inactive: 23.6%.
In the case of `COC(=O)c1ccc(COc2ccccc2/C=C(\C#N)C(=O)Nc2ccc(C)cc2C)cc1`, the “growth rescue (activation)” value is reported as inactive: -5.71%.
For `O=C(Cn1nnc2ccccc2c1=O)NC1CCCCC1`, the “growth rescue (activation)” value was inactive: 16.9%.
In the case of `Cc1ccc(S(=O)(=O)N(C)c2cc(S(=O)(=O)Nc3ccncc3)c(C)cc2C)cc1`, the “growth rescue (activation)” value is reported as inactive: 17.4%.
For `CC1=C(C(=O)Nc2cccc(C(=O)NC(C)C)c2)SCCO1`, the “growth rescue (activation)” value was inactive: 2.28%.
With `Cc1nc(S(=O)(=O)c2ccc(Cl)cc2)c(NCc2ccccc2)o1` the “growth rescue (activation)” value was inactive: 16.8%.
In the case of `COc1ccccc1NC(=O)N1C2CCCC1CC(NC(=O)c1ccccc1)C2` (centres undefined), the “growth rescue (activation)” value is reported as inactive: -1.62%.
For `CC(=O)Nc1ccc(S(=O)(=O)NCCC(=O)OCC(=O)NCc2ccccc2)cc1`, the “growth rescue (activation)” value was inactive: 2.36%.
In the case of `CCOc1ccccc1NC(=O)COC(=O)c1cc[n+]([O-])cc1`, the “growth rescue (activation)” value is reported as inactive: 0.882%.
With `O=C(O)c1c2c(nc3ccccc13)/C(=C/c1ccc(O)cc1)CCC2` the “growth rescue (activation)” value was inactive: 7.04%.
With `O=C(c1cc(-c2ccc(Cl)cc2Cl)on1)N1CCCC1` the “growth rescue (activation)” value was inactive: 29.6%.
With `CCOCCc1nnc(NC(=O)CS(=O)(=O)Cc2ccccc2)s1` the “growth rescue (activation)” value was inactive: -0.533%.
In the case of `Cc1cc(C)c(N=Cc2c(O)n(-c3nccs3)c(=O)c3ccccc23)c(C)c1`, the “growth rescue (activation)” value is reported as inactive: 15.8%.
